Some entries share one result that the patent states for a list of compounds.
Experiments:
[1] = target: T1, endogenous Escherichia coli tryptophan synthase beta subunit (TrpB) (Escherichia coli, UniProt P0A879); experiment: TrpB substrate flexibility, in vivo conversion of substituted indoles to tryptophans; assay type: cell-based; settings: sampled at 24 h
T1 construct: Yield for production of tryptophan derivatives by native E. coli TrpB from indole derivatives; endogenous in cells; host or cells: E. coli BL21 Star (DE3) carrying pETM6-SDM2x (empty vector for the TrpB-alone study)
Excerpt: (§1) Four previously constructed BL21 Star™ (DE3) cell lines with pETM6-SDM2x plasmid backbones were used, each with endogenous Escherichia coli (E. coli) tryptophan synthase beta subunit (TrpB); (1) no gene insert (empty vector), (2) PsiD gene insert with T7 promoter, (3) PsiD-PsiK gene insert with C4 promoter in operon configuration (pNor, Norbaeocystin Production Strain) (Adams et al., 2022), and (4) PsiD-PsiK-PsiM gene insert with H10 promoter in operon configuration (pSilo16, Psilocybin Production Strain; See WO 2021/086513) (Adams et al., 2019). For the PsiD transcriptional optimization study, each of the nine previously described library members were used, in lieu of the strains above. Overnight cultures were grown in Andrew's Magic Media (AMM) without MOPS, appropriate antibiotics for plasmid retention, and were inoculated from freezer stocks. Experimental cultures were incubated in covered 48-well plates at 37° C. in a shaking incubator. AMM media consistent with above was inoculated at 2% final volume of respective overnight culture and 2 mL aliquoted to each well. Indole derivatives were added to each well, except negative control, at 100 mg/L using 5 uL from a 40 mg/mL stock in EtOH. 4-Nitroindole at 13.3 mg/mL in EtOH was added using 15 uL due to solubility limitations. Cultures were induced at 2 hours using 1 mM ITPG. Cultures were sampled at 24 hours and subjected to LC-MS analysis as described below. Cultures with serine added were identical to those without, except for adding 4.5 g/L of serine prior to inoculation.
(§2) Without commercially available standards for many of these compounds absolute quantification of enzymatic products is not possible. Peak areas from one substituted indole could not be compared directly to peak areas from another substituted indole due to significant differences in extinction coefficients. Relative quantification was performed by comparing product UV 280 nm peak areas from HPLC analysis (mAU*min) to that of the corresponding substituted indole. TrpB proficiencies with and without serine were calculated by dividing the tryptophan product peak areas by the total peak areas from the indole and tryptophan peaks. Tryptophan and indole peak areas were determined from duplicate samples with indole and subtraction of any time-correlated peak areas found in the samples without indole addition. Any other indole related peak areas found in indole samples were included in the denominator. Indole related peaks were defined as peaks found in indole samples, but absent from samples without indole addition. Similar calculations were performed for PsiD proficiencies where tryptamine peak areas were divided by the total area of associated tryptamine and tryptophan peaks. Indole utilization was also calculated for PsiD proficiencies where the remaining indole peak areas were divided by the initial peak areas.

P. cubensis PsiD = target: T2, P. cubensis PsiD (Psilocybe cubensis, UniProt P0DPA6, L22F); experiment: PsiD substrate flexibility, in vivo decarboxylation of substituted tryptophans to tryptamines; assay type: cell-based, Escherichia coli; settings: PsiD under consensus T7 promoter, jointly in vivo with TrpB; tryptamine / (tryptophan + tryptamine) peak areas
T2 construct: expressed in transfected cells; host or cells: E. coli BL21 Star (DE3); PsiD insert with the T7 promoter, or promoter/backbone library members, or pNor and pSilo16
Excerpt: as §1, §2
PsiD substrate flexibility was evaluated jointly in vivo with TrpB, such that if indoles were not sufficiently processed by TrpB, then PsiD activity could not be evaluated. PsiD proficiency is defined as the fraction of substituted tryptamine produced over the sum of substituted tryptophan remaining and substituted tryptamine produced.

[2] = without supplemental serine, indole 100 mg/L, tryptophan peak area / total indole-related peak areas (UV 280 nm)
[3] = with supplemental serine 4.5 g/L

SMILES | TrpB proficiency [1, 2] | TrpB proficiency [1, 3] | TrpB proficiency (class) [1, 3] | PsiD proficiency (P. cubensis PsiD)
Cc1cc2ccccc2[nH]1 [2-methylindole] | > 65% | – | – | –
O=[N+]([O-])c1cccc2[nH]ccc12 [4-nitroindole] | 0-5% | 0-5% | – | –
Cc1ccc2[nH]ccc2c1 [5-methylindole] | – | – | moderate (moderate (35-65%)) | 5-35%
Fc1cc2ccccc2[nH]1 [2-fluoroindole] | 0-5% | 0-5% | – | –
Fc1cccc2cc[nH]c12 [7-fluoroindole] | – | > 65% | – | 5-35%
Brc1cccc2[nH]ccc12 [4-bromoindole] | – | – | low (low proficiency (5-35%)) | –
Fc1ccc2[nH]ccc2c1 [5-fluoroindole] | – | – | low (low proficiency (5-35%)) | 5-35%
Clc1cccc2[nH]ccc12 [4-chloroindole] | – | – | low (low proficiency (5-35%)) | –
Nc1cccc2cc[nH]c12 [7-aminoindole] | – | – | moderate (moderate (35-65%)) | 1-5%
Clc1ccc2cc[nH]c2c1 [6-chloroindole] | – | – | moderate (moderate (35-65%)) | –
Oc1cccc2[nH]ccc12 [4-hydroxyindole] | > 65% | – | – | > 65%
N#Cc1cccc2cc[nH]c12 [7-cyanoindole] | – | – | moderate (moderate (35-65%)) | –
N#Cc1ccc2cc[nH]c2c1 [6-cyanoindole] | 0-5% | 0-5% | – | –
N#Cc1ccc2[nH]ccc2c1 [5-cyanoindole] | 0-5% | 0-5% | – | –
Brc1cccc2cc[nH]c12 [7-bromoindole] | > 65% | – | – | 1-5%
Clc1cccc2cc[nH]c12 [7-chloroindole] | > 65% | > 65% | – | 1-5%
Clc1ccc2[nH]ccc2c1 [5-chloroindole] | 0-5% | – | low (low proficiency (5-35%)) | –
Cn1ccc2ccccc21 [1-methylindole] | 0-5% | 0-5% | – | –
Cc1cccc2[nH]ccc12 [4-methylindole] | – | > 65% | – | > 65%
Ic1ccc2cc[nH]c2c1 [6-iodoindole] | – | 0-5% | moderate (moderate (35-65%)) | –
N#Cc1cccc2[nH]ccc12 [4-cyanoindole] | 0-5% | 0-5% | – | –
Nc1cccc2[nH]ccc12 [4-aminoindole] | – | – | low (low proficiency (5-35%)) | > 65%
O=[N+]([O-])c1cccc2cc[nH]c12 [7-nitroindole] | 0-5% | 0-5% | – | –

SMILES | TrpB proficiency [1, 2] | TrpB proficiency [1, 3] | TrpB proficiency (class) [1, 3] | PsiD proficiency (P. cubensis PsiD)
Oc1cc2ccccc2[nH]1 [2-hydroxyindole] | 0-5% | 0-5% | – | –
Ic1cccc2[nH]ccc12 [4-iodoindole] | – | – | low (low proficiency (5-35%)) | –
O=[N+]([O-])c1ccc2[nH]ccc2c1 [5-nitroindole] | 0-5% | 0-5% | – | –
COc1ccc2[nH]ccc2c1 [5-methoxyindole] | – | – | moderate (moderate (35-65%)) | 5-35%
Fc1ccc2cc[nH]c2c1 [6-fluoroindole] | – | – | low (low proficiency (5-35%)) | 5-35%
Ic1ccc2[nH]ccc2c1 [5-iodoindole] | 0-5% | – | – | –
Ic1cccc2cc[nH]c12 [7-iodoindole] | > 65% | – | – | –
Cc1cccc2cc[nH]c12 [7-methylindole] | > 65% | – | – | 1-5%
Cc1ccc2cc[nH]c2c1 [6-methylindole] | > 65% | > 65% | – | 1-5%
Brc1ccc2[nH]ccc2c1 [5-bromoindole] | 0-5% | 0-5% | – | –
O=[N+]([O-])c1ccc2cc[nH]c2c1 [6-nitroindole] | 0-5% | 0-5% | – | –
Clc1cc2ccccc2[nH]1 [2-chloroindole] | – | – | low (low proficiency (5-35%)) | –
COc1cccc2cc[nH]c12 [7-methoxyindole] | > 65% | – | – | 1-5%
Nc1ccc2[nH]ccc2c1 [5-aminoindole] | 0-5% | 0-5% | – | –
Fc1cccc2[nH]ccc12 [4-fluoroindole] | – | > 65% | – | 5-35%
Brc1ccc2cc[nH]c2c1 [6-bromoindole] | – | – | low (low proficiency (5-35%)) | –
Nc1ccc2cc[nH]c2c1 [6-aminoindole] | 0-5% | 0-5% | – | –
Oc1cccc2cc[nH]c12 [7-hydroxyindole] | > 65% | > 65% | – | 5-35%
Oc1ccc2[nH]ccc2c1 [5-hydroxyindole] | – | – | moderate (moderate (35-65%)) | 5-35%
Oc1ccc2cc[nH]c2c1 [6-hydroxyindole] | 0-5% | 0-5% | – | > 65%
COc1cccc2[nH]ccc12 [4-methoxyindole] | – | – | low (low proficiency (5-35%)) | –
COc1ccc2cc[nH]c2c1 [6-methoxyindole] | – | – | moderate (moderate (35-65%)) | 1-5%

— patent publication US20240417764A1, “METHODS FOR THE PRODUCTION OF TRYPTOPHANS, TRYPTAMINES, INTERMEDIATES, SIDE PRODUCTS AND DERIVATIVES” (priority 2021, published 2024)
